Test results reported in PMC4546648.
Results are given in words; binding and its absence hold for the method and conditions named. Binding seen in cells or lysates may run through a third protein. Some results given as binding are weak or reduced against the parent protein; the word gives no strength. For part of these data: Tags and fused reporters may be left off the sequences shown.

Sequences of proteins named here, by UniProt entry; tags and fusion partners are left off. Residues count along the entry.
UniProt P16885, residues 769-829: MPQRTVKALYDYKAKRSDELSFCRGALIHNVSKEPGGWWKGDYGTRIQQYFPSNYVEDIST
UniProt P60953: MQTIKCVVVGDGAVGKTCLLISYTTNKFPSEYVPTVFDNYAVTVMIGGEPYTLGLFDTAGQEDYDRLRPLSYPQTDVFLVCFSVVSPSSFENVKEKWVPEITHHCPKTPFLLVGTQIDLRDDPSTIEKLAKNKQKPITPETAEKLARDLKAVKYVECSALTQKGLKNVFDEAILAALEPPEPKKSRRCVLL

Columns and labels:
[1] = target: T1, GST-K15P cytoplasmic domain (aa 347-489) (Kaposi's sarcoma herpesvirus (KSHV, HHV-8)) (UniProt Q9QR69); test: pull-down; GST-K15P cytoplasmic domain on glutathione beads incubated overnight at 4°C with pre-cleared lysate of HEK293T transfected with PLCγ2 constructs; western blot; only the target purified
T1 sequence: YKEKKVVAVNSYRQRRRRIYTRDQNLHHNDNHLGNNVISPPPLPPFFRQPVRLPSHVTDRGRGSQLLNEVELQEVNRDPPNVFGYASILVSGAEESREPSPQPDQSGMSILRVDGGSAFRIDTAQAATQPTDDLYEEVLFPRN

[2] = target: T1, GST-K15P cytoplasmic domain (aa 347-489) (Kaposi's sarcoma herpesvirus (KSHV, HHV-8)); test: pull-down; competition: GST-K15P cytoplasmic domain on beads pulls down endogenous PLCγ1, GIT1 and cdc42 from lysates of HEK293T transfected with 0.5, 1 or 2 μg of PLCγ2 cSH2 plasmid; western blot; only the target purified
[3] = target: T2, PLCγ1, endogenous in HuAR2T endothelial cells (human (endogenous in HuAR2T)) (UniProt P19174); test: co-IP; endogenous PLCγ1 immunoprecipitated with anti-PLCγ1 antibody and protein A sepharose from pre-cleared HuAR2T rKSHV.219 lysate, with or without induction of the lytic cycle; western blot
T2 sequence: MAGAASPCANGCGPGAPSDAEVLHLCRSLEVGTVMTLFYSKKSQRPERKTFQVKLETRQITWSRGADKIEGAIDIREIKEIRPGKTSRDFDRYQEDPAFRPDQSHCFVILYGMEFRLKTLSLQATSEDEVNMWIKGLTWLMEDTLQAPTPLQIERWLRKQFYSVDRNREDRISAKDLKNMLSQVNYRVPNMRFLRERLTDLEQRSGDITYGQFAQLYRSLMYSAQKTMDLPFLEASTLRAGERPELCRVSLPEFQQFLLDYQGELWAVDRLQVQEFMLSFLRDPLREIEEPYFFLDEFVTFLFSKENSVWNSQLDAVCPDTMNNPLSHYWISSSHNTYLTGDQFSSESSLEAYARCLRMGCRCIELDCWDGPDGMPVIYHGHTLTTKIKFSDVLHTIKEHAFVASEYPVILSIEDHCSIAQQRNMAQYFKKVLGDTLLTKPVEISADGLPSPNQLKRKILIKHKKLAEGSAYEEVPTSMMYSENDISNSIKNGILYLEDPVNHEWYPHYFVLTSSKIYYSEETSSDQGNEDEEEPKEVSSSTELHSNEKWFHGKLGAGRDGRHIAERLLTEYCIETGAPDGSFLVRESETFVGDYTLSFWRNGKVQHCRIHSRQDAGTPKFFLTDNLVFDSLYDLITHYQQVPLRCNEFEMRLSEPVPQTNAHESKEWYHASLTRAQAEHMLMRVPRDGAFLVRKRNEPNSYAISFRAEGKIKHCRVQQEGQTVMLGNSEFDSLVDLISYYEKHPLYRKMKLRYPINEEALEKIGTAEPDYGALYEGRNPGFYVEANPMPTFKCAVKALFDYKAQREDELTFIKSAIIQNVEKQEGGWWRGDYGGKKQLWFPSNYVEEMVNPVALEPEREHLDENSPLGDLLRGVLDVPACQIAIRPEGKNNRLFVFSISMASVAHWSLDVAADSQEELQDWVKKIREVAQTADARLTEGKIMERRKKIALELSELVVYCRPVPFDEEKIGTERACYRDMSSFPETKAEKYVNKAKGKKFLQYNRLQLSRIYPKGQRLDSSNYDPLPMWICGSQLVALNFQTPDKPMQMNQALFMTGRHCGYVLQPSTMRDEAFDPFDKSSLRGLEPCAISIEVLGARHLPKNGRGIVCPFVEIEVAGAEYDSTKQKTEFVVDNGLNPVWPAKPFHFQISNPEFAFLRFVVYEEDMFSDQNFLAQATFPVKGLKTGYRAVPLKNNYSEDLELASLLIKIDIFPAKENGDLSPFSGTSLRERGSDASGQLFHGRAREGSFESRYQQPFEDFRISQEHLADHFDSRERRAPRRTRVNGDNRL

isolated PLCγ2 SH3 domain (from UniProt P16885 769-829) (domain or fragment)
binding [1]: no binding

cdc42, endogenous in HEK293T cells (from UniProt P60953 1-191)
binding [2]: binds

cdc42, endogenous in HuAR2T endothelial cells (from UniProt P60953 1-191)
binding [3]: binds
